# About 150 (0.041%) of roughly 370,000 compounds were called active. This list was built around the results that the source calls inconclusive (neither active nor inactive); the mix of calls is not that of the screen. The call rests on the fitted dose curve; in most records, active means well fitted inhibition curve with a large enough effect; inconclusive means small, poorly fitted or top-dose-only effect; inactive means flat fitted curve, though single readings scatter. No potency is given beside an inconclusive call; the fits are too rough.
# Target: Beta-lactamase (Escherichia coli (strain K12)) (UniProt P00811)
# Assay: qHTS Inhibitors of AmpC Beta-Lactamase (assay with detergent); further: nearly all actives have a fitted effect of over 25% in size;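 on activity change, negative = inhibition: 0% = no-compound wells and -100% = no-enzyme wells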
# Settings: AmpC hydrolysis of nitrocefin, absorbance 480 nm, 0.01% Triton; activity change, negative = inhibition: at 114 µM (top of the series)
# Method in brief: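 AmpC (5.3 nM in the dispensed reagent) in 20 mM phosphate pH 7.0 with 0.01% (detergent screen) or 0.0001% Triton X-100 was preincubated with compounds for 15 min at room temperature. Nitrocefin was then added from an 800 uM solution, and hydrolysis was followed at 480 nm.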
# Potency means the concentration at half of the fitted maximal effect; tags describe the fitted curve by direction and shape.
# Chain of UniProt P00811 (P00811 whole entry, looked up): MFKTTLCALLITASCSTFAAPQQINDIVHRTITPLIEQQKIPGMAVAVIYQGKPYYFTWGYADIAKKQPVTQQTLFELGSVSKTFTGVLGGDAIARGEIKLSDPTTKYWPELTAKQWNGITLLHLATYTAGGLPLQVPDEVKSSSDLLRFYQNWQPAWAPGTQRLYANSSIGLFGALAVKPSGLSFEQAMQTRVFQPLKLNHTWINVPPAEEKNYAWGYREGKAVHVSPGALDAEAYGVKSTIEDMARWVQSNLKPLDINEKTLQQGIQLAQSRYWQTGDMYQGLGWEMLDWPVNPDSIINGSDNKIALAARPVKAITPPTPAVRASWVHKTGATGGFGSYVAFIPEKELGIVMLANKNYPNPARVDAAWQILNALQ
Structure (SMILES),Potency,"activity change, negative = inhibition"
CC(=O)Nc1ccc(S(=O)(=O)N[C@@H](C)C(=O)OCC(=O)NC2CCCC2)cc1,"inconclusive [inhibitor, full curve, poor fit]",–
CCOc1ccccc1OCCOc1ccccc1OC(C)C,"inconclusive [inhibitor, full curve, poor fit]",–
COC(=O)COc1ccc(S(=O)(=O)Nc2cc([N+](=O)[O-])ccc2C)cc1,"inconclusive [inhibitor, full curve]",–
CCOC(=O)/C(=C/c1ccc(OC(=O)c2ccncc2)cc1)C(C)=O,inactive,–
CCn1c(=O)c2c(nc(SCC(=O)NCC3CCCO3)n2C)n(C)c1=O (stereo not given),"inconclusive [inhibitor, full curve]",–
CCOC(=O)CN1c2ccccc2NC(=O)CC1C (stereo not given),"inconclusive [inhibitor, full curve, poor fit]",–
CCC(CCC(=O)Nc1ccn(-c2ccccc2)n1)C(=O)O (stereo not given),"inconclusive [inhibitor, full curve, poor fit]",–
CCCCNC(=O)Nc1ncn[nH]1,"inconclusive [inhibitor, full curve, poor fit]",–
CCOC(=O)CNc1nc(C(C)(C)C)nc2c1nnn2Cc1ccccc1,"inconclusive [inhibitor, partial curve, poor fit]",–
COC(=O)c1sc(NC(=O)COC(=O)C2CCC2)c(C(=O)OC)c1C,"inconclusive [inhibitor, full curve, poor fit]",–
COC(=O)CCC(=O)N1CCCC(CO)(Cc2ccccc2F)C1 (stereo not given),–,inconclusive: -19.9% [inhibitor]
O=C(Nc1cccs1)Nc1c(F)cc(F)cc1Br,"inconclusive [inhibitor, full curve, poor fit]",–
COc1ccc(C(=O)NC2c3ccccc3-c3ccccc32)cc1,"inconclusive [inhibitor, partial curve, poor fit]",–
COc1ccccc1CC(=O)NC1CCN(Cc2ccccc2)CC1,inactive,–
N#CCCCCN1CCCC1,inactive,–
CC1CCCN(C(=O)c2ccc3nc[nH]c3c2)C1 (stereo not given),"inconclusive [inhibitor, full curve]",–
Cc1cc(C)c2cc(C#N)c(NCCCNC(=O)CCC(=O)O)nc2c1,"inconclusive [inhibitor, full curve, poor fit]",–
C=CCNC(=S)NCc1ccccc1,inactive,–
CS(=O)(=O)c1ccc(C(=O)N2CCc3ccccc3C2)cc1,"inconclusive [inhibitor, full curve, poor fit]",–
O=C(Nc1ccc(F)cc1)C1CCCN(S(=O)(=O)c2cccc3cccnc23)C1 (stereo not given),"inconclusive [inhibitor, full curve, poor fit]",–
C#CCn1c(=NC(=O)c2ccc(Br)s2)sc2cccc(OC)c21,"inconclusive [inhibitor, full curve]",–
O=C(N/N=C/C(Cl)=C/c1ccccc1)c1ccncc1,inactive,–
N/C(=N\c1nc2ccccc2o1)NC(=O)C(Cc1ccccc1)N1C(=O)c2ccccc2C1=O (stereo not given),"inconclusive [inhibitor, partial curve]",–

Structure (SMILES),Potency,"activity change, negative = inhibition"
Cc1cc(C)c2nc3nc(C)c(C)cc3c(N)c2c1,"inconclusive [inhibitor, single point]",–
C/C(=N\O)C(=O)NCCN(C)C,"inconclusive [inhibitor, full curve]",–
CCCCC(=O)Nc1cccc(NC(=S)NC(=O)COc2ccccc2Cl)c1,"inconclusive [inhibitor, partial curve, poor fit]",–
Cc1cc(NC(=O)CSc2nnc(-c3ccccc3)n2Cc2ccco2)no1,inactive,–
O=C(NC12CC3CC(CC(C3)C1)C2)N1CCN(C(=O)c2ccco2)CC1,"inconclusive [inhibitor, single point]",–
CC1CCc2nc(N)c(C#N)c(-c3cccn3C)c2C1 (stereo not given),"inconclusive [inhibitor, full curve, poor fit]",–
Fc1ccc(CNCc2ccccc2Cl)cc1,"inconclusive [inhibitor, partial curve]",–
O=C(NCc1ccc(OC(F)(F)F)cc1)C1CC2Cn3c(nc4ccccc43)C2N1Cc1ccccc1 (stereo not given),"inconclusive [inhibitor, partial curve]",–
N#Cc1ccc(OCC(=O)N2CCN(S(=O)(=O)c3cccs3)CC2)cc1,"inconclusive [inhibitor, full curve, poor fit]",–
N#Cc1ccc(-c2nnnn2-c2ccc3c(c2)OCO3)cc1,"inconclusive [inhibitor, full curve]",–
CC(=O)NCCc1nc2cc(NC(=O)COc3ccc(C)cc3)ccc2n1C,"inconclusive [inhibitor, full curve, poor fit]",–
Cc1nnc(N2CCC(C(=O)NCCC(C)C)CC2)c2nn(-c3ccc(Cl)cc3)c(C)c12,inactive,–
CCCC[C@@H]1C[C@H]1[C@@H](NC(=O)c1ccco1)c1ccc(Cl)cc1,inactive,–
CCOC(NC(=O)c1ccccc1)C(NC(=O)c1ccccc1)OCC (stereo not given),inactive,–
CCC(C(=O)N1CCN(c2ccccc2)CC1)n1c(C)c2cnn(-c3ccccc3)c(=O)c2c1C (stereo not given),inactive,–
C=CCC(C=C)[N+]1(CC(=O)OC)CCCCC1 (stereo not given),"inconclusive [inhibitor, single point]",–
Cc1cccc(-n2ccnc2SCC(=O)Nc2nnc(C)s2)c1,"inconclusive [inhibitor, full curve, poor fit]",–
Cc1csc(NC(=O)c2ccccc2O)n1,inactive,–
O=C(/C=C/c1ccco1)NCCCN1CCOCC1,inactive,–
COc1ccc(-c2c(C(C)=O)c(C)nc3sc4c(=N)n(N)cnc4c23)cc1,inactive,–
Cc1ccc2nc(N3CCOCC3)c3nncn3c2c1,"inconclusive [inhibitor, partial curve, poor fit]",–
O=C(CCNC(=O)c1ccc(Br)cc1)NNC(=O)C1COc2ccccc2O1 (stereo not given),"inconclusive [inhibitor, full curve, poor fit]",–

# — PubChem BioAssay AID485294 (National Center for Advancing Translational Sciences (NCATS), 2010)
